Source: paper PMC5700166
This is a selection; strong and weak results do not stand in their true shares. The list includes weakly bound sequences.

Each sequence was assayed against T1, GST-Nv-NF-kB (Cys allele) (UniProt E5G601) (assay: protein-binding microarray (PBM)). Settings: PBM: ~300 nM protein, 6 mM HEPES pH 7.8, 80 mM KCl, 0.5 mM EDTA, 0.5 mM EGTA, 6% glycerol, 35 ng/ul poly-dIdC, 1% milk, 1 h, room temperature; Ap Aiptasia and Nv Nematostella (sea anemones) / Co Capsaspora / Aq Amphimedon (sponge) / Dm Drosophila / Hu human; RHD is the Rel homology domain; high values mean tight binding; most listed sequences are background and not binding sites; double strand, one strand shown.
T1 sequence: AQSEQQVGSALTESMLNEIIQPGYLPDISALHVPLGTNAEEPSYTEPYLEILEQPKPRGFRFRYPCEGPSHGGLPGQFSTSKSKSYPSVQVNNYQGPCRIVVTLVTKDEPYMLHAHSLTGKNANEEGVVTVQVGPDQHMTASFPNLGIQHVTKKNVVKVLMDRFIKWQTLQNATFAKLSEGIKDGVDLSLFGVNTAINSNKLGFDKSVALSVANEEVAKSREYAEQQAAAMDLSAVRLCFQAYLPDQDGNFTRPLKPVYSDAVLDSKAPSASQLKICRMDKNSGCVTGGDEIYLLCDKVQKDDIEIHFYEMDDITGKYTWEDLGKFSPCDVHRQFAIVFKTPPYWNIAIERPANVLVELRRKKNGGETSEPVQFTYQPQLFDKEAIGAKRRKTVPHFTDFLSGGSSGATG

**Q.** With “CCGATTAACATCAGGATATCCCATGATGTTAATCGGGTCTTGATTCGCTTGACGCTGCTG” as the sequence, how does the binding signal read?
**A.** The binding signal was 0.222 z-score.

**Q.** Which binding signal does the source give for “CCGATTAACATCAGGATTCTCCCTGATGTTAATCGGGTCTTGATTCGCTTGACGCTGCTG” here?
**A.** The binding signal was 4.71 z-score.

**Q.** Which binding signal does the source give for “CCGATTAACATCAAAAATGCCCCTGATGTTAATCGGGTCTTGATTCGCTTGACGCTGCTG” here?
**A.** The binding signal was 6.79 z-score.

**Q.** How did the binding signal turn out when “CCGATTAACATCACGGGTTTCCCTGATGTTAATCGGGTCTTGATTCGCTTGACGCTGCTG” was run?
**A.** Its binding signal is 4.58 z-score.

**Q.** With “CCGATTAACATCACGTTATTCCCTGATGTTAATCGGGTCTTGATTCGCTTGACGCTGCTG” as the sequence, how does the binding signal read?
**A.** Its binding signal is 2.96 z-score.

**Q.** For “CCGATTAACATCACAATACCCCCTGATGTTAATCGGGTCTTGATTCGCTTGACGCTGCTG”, which binding signal is on record?
**A.** Its binding signal is 4.51 z-score.

**Q.** Which binding signal does the source give for “CCGATTAACATCAGTAAATCCCATGATGTTAATCGGGTCTTGATTCGCTTGACGCTGCTG” here?
**A.** The binding signal was 1.09 z-score.

**Q.** How did the binding signal turn out when “CCGATTAACATCAGGGGGAAGTATGATGTTAATCGGGTCTTGATTCGCTTGACGCTGCTG” was run?
**A.** Its binding signal is 6.23 z-score.

**Q.** Which binding signal does the source give for “CCGATTAACATCACAAAAGCCCCTGATGTTAATCGGGTCTTGATTCGCTTGACGCTGCTG” here?
**A.** Its binding signal is 8.09 z-score.

**Q.** With “CCGATTAACATCAAACAATTCCCTGATGTTAATCGGGTCTTGATTCGCTTGACGCTGCTG” as the sequence, how does the binding signal read?
**A.** The binding signal was 5.26 z-score.

**Q.** With “CCGATTAACATCAGGTAACCCCATGATGTTAATCGGGTCTTGATTCGCTTGACGCTGCTG” as the sequence, how does the binding signal read?
**A.** The binding signal was 0.775 z-score.

**Q.** For “CCGATTAACATCACGGTACGGGGTGATGTTAATCGGGTCTTGATTCGCTTGACGCTGCTG”, which binding signal is on record?
**A.** The binding signal was 0.741 z-score.
